Columns and labels:
Experiment in all cases: ELISA, ligand coated on plate, RAGE-Fc titrated, anti-IgG Fc-HRP detection; apparent Kd
HMGB1 (amphoterin) = biological target: T1, HMGB1 (amphoterin) (UniProt P09429 1-215, limits assumed)
T1 sequence (looked up): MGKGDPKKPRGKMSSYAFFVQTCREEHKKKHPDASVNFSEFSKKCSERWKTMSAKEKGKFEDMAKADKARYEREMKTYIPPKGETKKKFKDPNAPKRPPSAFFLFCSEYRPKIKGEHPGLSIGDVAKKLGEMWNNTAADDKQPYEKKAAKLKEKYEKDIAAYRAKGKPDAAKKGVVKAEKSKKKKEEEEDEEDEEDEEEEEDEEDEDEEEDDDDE
Procedure: (§1) Functional ELISA assays were performed to assess the ligand binding characteristics of RAGE-Fc fusion proteins. Apparent binding affinities of RAGE-Fc fusion proteins to the RAGE ligands CML-HSA, HMGB1, S100A9 and S100A12 were measured for the following fusion proteins: Construct #1 (SEQ ID NO: 5), Construct #9 (SEQ ID NO: 53), Construct #10 (SEQ ID NO: 12), Construct #12 (SEQ ID NO: 15), and Construct #16 (SEQ ID NO: 16). Previous experiments were carried out to determine fundamental functionality of an ELISA, optimal coating concentrations and volumes, a dynamic range for the RAGE-Fc constructs, as well as optimized antibody dilutions and TMB development times.
(§2) RAGE ligands CML-HSA, HMGB1, S100A9 and S100A12 were separately coated onto a coated plate (MaxiSorp™) at a concentration of 50 nanomolar (nM), 100 microliters (μL) per well. RAGE ligand CML-HSA was separately coated onto a coated plate (MaxiSorp™) at a concentration of 100 nanograms (ng), 100 μL per well. The plates were then incubated overnight at 4° C. to allow the protein to bind to the plate coating. Following the coating step, the plates were washed once with 150 μL of wash solution (2.67 mM potassium chloride, […], 136.9 mM sodium chloride, 8.10 mM sodium phosphate dibasic, 0.05% Tween-20). […] After the blocking step, two washes were performed with the wash solution. The RAGE-Fc fusion protein was then incubated on the wells in log10 dilution with each separate ligand for 120 minutes at 37° C. while shaking. After the RAGE-Fc binding step, three washes were performed with the wash solution. Binding of the RAGE-Fc fusion to […], HMGB1, S100A9, and S100A12 was detected with a horseradish peroxidase (HRP) conjugated antibody with antigen specificity to IgG Fc (Abcam, Cat. No. ab99759). 100 μL of antibody diluted 1:5000 in DBPS was added to the assay wells, followed by 60 minutes of incubation at 37° C. while shaking. The wells were then washed four times with the wash solution. 100 μL of TMB (ThermoFisher Scientific, Cat. No. 34029) was then added to each well.

[1] = biological target: T2, CML-HSA (carboxymethylated human serum albumin) (human, UniProt P02768, carboxymethylated (CML); modified sites not stated)
T2 construct: An advanced glycation end-product form of HSA, coated on the ELISA plate
T2 sequence (P02768 25-609 limits assumed): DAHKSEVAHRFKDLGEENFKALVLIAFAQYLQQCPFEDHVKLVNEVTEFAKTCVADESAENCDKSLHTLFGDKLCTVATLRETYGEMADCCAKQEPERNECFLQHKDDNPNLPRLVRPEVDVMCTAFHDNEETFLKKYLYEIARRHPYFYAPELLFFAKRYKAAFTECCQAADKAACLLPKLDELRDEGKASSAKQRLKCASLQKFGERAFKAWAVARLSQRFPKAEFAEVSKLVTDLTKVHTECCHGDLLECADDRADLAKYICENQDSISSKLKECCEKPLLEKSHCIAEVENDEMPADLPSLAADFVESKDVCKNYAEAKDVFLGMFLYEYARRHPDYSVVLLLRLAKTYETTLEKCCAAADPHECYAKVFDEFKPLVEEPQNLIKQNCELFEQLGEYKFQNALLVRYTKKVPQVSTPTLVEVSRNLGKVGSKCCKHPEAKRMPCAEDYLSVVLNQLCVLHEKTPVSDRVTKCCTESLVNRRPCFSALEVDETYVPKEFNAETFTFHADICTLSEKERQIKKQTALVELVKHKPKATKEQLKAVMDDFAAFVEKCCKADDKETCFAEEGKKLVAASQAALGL
Procedure: as §1, §2

S100A12 = biological target: T3, S100A12 (UniProt P80511 1-92, limits assumed)
T3 sequence (looked up): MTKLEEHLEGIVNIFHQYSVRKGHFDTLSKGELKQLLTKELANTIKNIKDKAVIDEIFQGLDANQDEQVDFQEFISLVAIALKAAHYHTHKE
Procedure: as §1, §2

S100A9 = biological target: T4, S100A9 (UniProt P06702 1-114, limits assumed)
T4 sequence (looked up): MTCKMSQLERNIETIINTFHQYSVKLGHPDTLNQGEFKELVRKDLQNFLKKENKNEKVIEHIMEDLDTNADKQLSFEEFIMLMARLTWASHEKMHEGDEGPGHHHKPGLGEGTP
Procedure: as §1, §2

B1: Construct #1: RAGE V-C1-C2-Natural Stem-short linker-IgG1 hinge-(IgG1CH2-CH3) (Fc fusion)
chain: not shown
notes: also called RAGE-Fc fusion in the prior art; commercial RAGE-Fc fusion protein
A Kd (HMGB1 (amphoterin)) of 0.026 µM, a Kd [1] of 0.088 µM and a Kd (S100A12) of 0.18 µM were found for B1 in this work. For the same binder, the Kd (S100A9) was 0.266 µM.

B2: Construct #9: RAGE V-C1-C2-shortened stem-VH8aa-IgG4-hinge(S/P-AA)-(IgG4CH2-CH3) (Fc fusion)
chain: AQNITARIGEPLVLKCKGAPKKPPQRLEWKLNTGRTEAWKVLSPQGGGPWDSVARVLPNGSLFLPAVGIQDEGIFRCQAMNRNGKETKSNYRVRVYQIPGKPEIVDSASELTAGVPNKVGTCVSEGSYPAGTLSWHLDGKPLVPNEKGVSVKEQTRRHPETGLFTLQSELMVTPARGGDPRPTFSCSFSPGLPRHRALRTAPIQPRVWEPVPLEEVQLVVEPEGGAVAPGGTVTLTCEVPAQPSPQIHWMKDGVPLPLPPSPVLILPEIGPQDQGTYSCVATHSSHGPQESRAVSISIIEPGEEGPTAGGTLVTVSS[letters of human IgG4 Fc with S228P F234A L235A (EU numbers) left out]
notes: also called RAGE-Fc fusion lacking the C-terminal 13 amino acid RAGE stem
A Kd (HMGB1 (amphoterin)) of 0.002 µM, a Kd [1] of 0.006 µM and a Kd (S100A12) of 0.009 µM were found for B2 in this work. The Kd (S100A9) was 0.013 µM.

B3: Construct #10: RAGE V-C1-C2-V1 stem (M/A)-IgG4-hinge(S/P-AA)-(IgG4CH2-CH3) (Fc fusion)
chain: AQNITARIGEPLVLKCKGAPKKPPQRLEWKLNTGRTEAWKVLSPQGGGPWDSVARVLPNGSLFLPAVGIQDEGIFRCQAMNRNGKETKSNYRVRVYQIPGKPEIVDSASELTAGVPNKVGTCVSEGSYPAGTLSWHLDGKPLVPNEKGVSVKEQTRRHPETGLFTLQSELMVTPARGGDPRPTFSCSFSPGLPRHRALRTAPIQPRVWEPVPLEEVQLVVEPEGGAVAPGGTVTLTCEVPAQPSPQIHWMKDGVPLPLPPSPVLILPEIGPQDQGTYSCVATHSSHGPQESRAVSISIIEPGEEGPTAGEGFDKVREAEDSPQHA[letters of human IgG4 Fc with S228P F234A L235A (EU numbers) left out]
notes: also called esRAGE-Fc fusion
A Kd (HMGB1 (amphoterin)) of 0.015 µM, a Kd (S100A12) of 0.046 µM and a Kd (S100A9) of 0.041 µM were found for B3 in this work.
